Measurements from paper PMC4336329 (PLoS ONE, 2015).
About 2,200 (0.71%) of roughly 310,000 compounds showed an effect of 50% or more. Effects have a minus sign here. The list shows a part of the results.

What follows are compounds tested against human ether-à-go-go-related gene (hERG) potassium channel (human, UniProt Q12809) (assay: primary screen, population patch clamp on CHO cells stably expressing hERG).
Sequence of human ether-à-go-go-related gene (hERG) potassium channel (Q12809 whole entry, looked up): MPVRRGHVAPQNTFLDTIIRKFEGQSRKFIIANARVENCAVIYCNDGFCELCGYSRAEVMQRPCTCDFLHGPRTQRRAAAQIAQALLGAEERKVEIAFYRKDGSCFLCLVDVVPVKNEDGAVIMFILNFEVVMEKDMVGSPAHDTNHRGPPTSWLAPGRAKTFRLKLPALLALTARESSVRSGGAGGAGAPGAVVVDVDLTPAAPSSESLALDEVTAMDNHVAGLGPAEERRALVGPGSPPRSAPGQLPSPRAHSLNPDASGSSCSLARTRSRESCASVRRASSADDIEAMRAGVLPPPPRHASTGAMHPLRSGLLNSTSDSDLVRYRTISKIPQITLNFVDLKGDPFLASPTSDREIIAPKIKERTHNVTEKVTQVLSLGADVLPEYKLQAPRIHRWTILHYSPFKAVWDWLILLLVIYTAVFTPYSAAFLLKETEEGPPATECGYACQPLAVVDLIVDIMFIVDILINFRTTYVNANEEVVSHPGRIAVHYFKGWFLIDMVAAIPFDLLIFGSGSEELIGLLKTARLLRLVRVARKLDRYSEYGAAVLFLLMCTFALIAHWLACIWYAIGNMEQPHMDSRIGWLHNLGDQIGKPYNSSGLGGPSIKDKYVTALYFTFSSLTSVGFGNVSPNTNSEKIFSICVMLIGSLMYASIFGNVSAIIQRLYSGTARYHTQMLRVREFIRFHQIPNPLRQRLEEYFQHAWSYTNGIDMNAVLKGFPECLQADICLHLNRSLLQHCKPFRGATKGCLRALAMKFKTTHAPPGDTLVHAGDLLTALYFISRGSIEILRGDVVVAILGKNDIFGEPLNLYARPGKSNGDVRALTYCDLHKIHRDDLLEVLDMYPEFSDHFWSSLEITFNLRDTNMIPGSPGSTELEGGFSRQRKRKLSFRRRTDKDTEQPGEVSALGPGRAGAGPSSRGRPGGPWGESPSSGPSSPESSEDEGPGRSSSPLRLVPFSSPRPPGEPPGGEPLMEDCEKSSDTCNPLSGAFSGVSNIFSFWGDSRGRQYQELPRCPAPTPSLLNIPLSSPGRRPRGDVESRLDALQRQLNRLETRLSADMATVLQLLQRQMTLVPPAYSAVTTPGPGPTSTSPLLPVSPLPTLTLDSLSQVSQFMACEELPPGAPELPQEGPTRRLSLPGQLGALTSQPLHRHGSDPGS
CC1Cc2ccccc2N1S(=O)(=O)c1ccc2c(c1)n(C)c(=O)c(=O)n2C (stereo not drawn) was tested, and the “hERG current change (%, negative = inhibition) at 1uM” value was 1.88%.
With CCc1c(C(=O)Nc2cc(C)cc(C)c2)[nH]c(C)c1C(C)=O the “hERG current change (%, negative = inhibition) at 1uM” value was 9.33%.
COc1ccc(NC(=O)CCOc2ccc(C)cc2)c(OC)c1 was tested, and the “hERG current change (%, negative = inhibition) at 1uM” value was 23.3%.
CCc1cccc(CC)c1NC(=S)NCC(c1cccnc1)N(C)C (stereo not drawn) was tested, and the “hERG current change (%, negative = inhibition) at 1uM” value was 2.94%.
With CC(C)CC(NC(N)=O)C(=O)OCC(=O)Nc1ccc(SC(F)F)cc1 (stereo not drawn) the “hERG current change (%, negative = inhibition) at 1uM” value was 0.791%.
With COc1ccc(OC)c(N=Cc2c(O)n(Cc3ccccc3)c(=S)[nH]c2=O)c1 the “hERG current change (%, negative = inhibition) at 1uM” value was 10%.
For COc1ccc(/C(O)=C2/C(=O)C(=O)N(c3ccccn3)C2c2ccc(F)cc2)cc1 (stereo not drawn), the “hERG current change (%, negative = inhibition) at 1uM” value was 11.8%.
In the case of Cc1ccc(CC2CC(=O)N(c3ccc4c(c3)OCCO4)C2=O)cc1 (stereo not drawn), the “hERG current change (%, negative = inhibition) at 1uM” value is reported as 3.09%.
With CC12CCC(=O)N1C(C(=O)Nc1ccccc1F)CS2 (stereo not drawn) the “hERG current change (%, negative = inhibition) at 1uM” value was -5.04%.
For COc1ccccc1CCC(=O)OCC(=O)N1CCN(S(=O)(=O)c2ccc(C)cc2C)CC1, the “hERG current change (%, negative = inhibition) at 1uM” value was -1.99%.
In the case of COC(=O)CCC(=O)OC1(C)C(=O)C=C2C=C(C3CC3)N(c3cccc(C#N)c3)C=C2C1=O (stereo not drawn), the “hERG current change (%, negative = inhibition) at 1uM” value is reported as 13.4%.
In the case of Cc1nn(Cc2ccccc2Cl)c(C)c1NC(=O)c1cc(-c2ccc(F)cc2)on1, the “hERG current change (%, negative = inhibition) at 1uM” value is reported as -1.82%.
In the case of Cc1ccc(CNC(=O)CN2C(=O)COc3ccc(S(=O)(=O)N4CCC(C)CC4)cc32)o1, the “hERG current change (%, negative = inhibition) at 1uM” value is reported as 8.05%.
CCc1c(O)nc(SCC(=O)Nc2ccccc2C)n(-c2ccc(C)cc2)c1=O was tested, and the “hERG current change (%, negative = inhibition) at 1uM” value was 24.7%.
CC1CN(C(=O)Cn2cc(SCC(=O)N3CCOCC3)c3ccccc32)CC(C)O1 (stereo not drawn) was tested, and the “hERG current change (%, negative = inhibition) at 1uM” value was 13.2%.
In the case of CCOC(=O)C1=C(COC(=O)COc2ccc(C#N)cc2)NC(=O)NC1C (stereo not drawn), the “hERG current change (%, negative = inhibition) at 1uM” value is reported as 12.7%.
COc1cccc(Nc2ncc(C#N)c(N)n2)c1 was tested, and the “hERG current change (%, negative = inhibition) at 1uM” value was 12.9%.
With Cc1ccc(C)c(NC(=O)CSc2nnc(CNC(=O)c3ccco3)o2)c1 the “hERG current change (%, negative = inhibition) at 1uM” value was 12.1%.
For O=C(NCCC1CCCCN1S(=O)(=O)c1ccc(Cl)cc1)C(=O)NCc1ccncc1 (stereo not drawn), the “hERG current change (%, negative = inhibition) at 1uM” value was 7.06%.
C=C(C)Cn1c(=O)n(CC2CS2)c2ccccc21 (stereo not drawn) was tested, and the “hERG current change (%, negative = inhibition) at 1uM” value was 9.68%.
In the case of Nc1ccc2c(c1)Nc1ccccc1CC2, the “hERG current change (%, negative = inhibition) at 1uM” value is reported as 10.6%.
For CN(C)C1=NCCN1CC1CCCCCC1, the “hERG current change (%, negative = inhibition) at 1uM” value was 8.83%.
In the case of CN1CCN(c2ccc(Cl)cc2NC(=O)CCN2C(=O)c3ccccc3C2=O)CC1, the “hERG current change (%, negative = inhibition) at 1uM” value is reported as 6.75%.
In the case of COc1ccc(CCN2C(=O)C(Oc3ccccc3C)C2c2ccc3c(c2)OCO3)cc1OC (stereo not drawn), the “hERG current change (%, negative = inhibition) at 1uM” value is reported as 8.8%.
For CCN(c1ccccc1)S(=O)(=O)c1ccc(OCC(=O)Nc2cc(C)on2)cc1, the “hERG current change (%, negative = inhibition) at 1uM” value was 6.26%.
With O=C(N/N=C/c1ccc([N+](=O)[O-])cc1)c1c[nH]c2ccccc12 the “hERG current change (%, negative = inhibition) at 1uM” value was 12.2%.
With CC(=O)N/C(=C\c1ccccc1)C(=O)OCC(=O)NC1CCCC1 the “hERG current change (%, negative = inhibition) at 1uM” value was 6.53%.
With Cc1nc2ccc(C(=O)O)cc2[nH]1 the “hERG current change (%, negative = inhibition) at 1uM” value was 14.2%.
In the case of COc1ccc(-c2nc3cnccn3c2NC(C)(C)CC(C)(C)C)cc1O, the “hERG current change (%, negative = inhibition) at 1uM” value is reported as 13.7%.
COC(=O)c1ccc(OCC(O)CNCC(c2ccc(OC)cc2)N(C)C)c(OC)c1 (stereo not drawn) was tested, and the “hERG current change (%, negative = inhibition) at 1uM” value was 9.05%.
O=C(NC(=S)Nc1cccc([N+](=O)[O-])c1)C1CCCCC1 was tested, and the “hERG current change (%, negative = inhibition) at 1uM” value was 18.7%.
In the case of Cc1noc(/C=C/N(C)C)c1S(=O)(=O)N1CCCC(C(=O)NC2CCCCC2C)C1 (stereo not drawn), the “hERG current change (%, negative = inhibition) at 1uM” value is reported as 2.4%.
For Cc1ccc(-n2c(=O)c3sccc3n(CC(=O)NC3CCCCC3)c2=O)cc1, the “hERG current change (%, negative = inhibition) at 1uM” value was 10.5%.
CCc1nc2ccc(N3CCN(C)CC3)cc2nc1CC was tested, and the “hERG current change (%, negative = inhibition) at 1uM” value was 12.9%.
COC(=O)c1ccc(C(=O)OC)c(NC(=O)CN2CCN(c3ccc(OC)cc3)CC2)c1 was tested, and the “hERG current change (%, negative = inhibition) at 1uM” value was 14.7%.
For CC(=O)c1ccc(-c2nnc(CCC(=O)N(C)Cc3c(C)nc4ccccn34)o2)s1, the “hERG current change (%, negative = inhibition) at 1uM” value was 5.3%.
For O=c1[nH]c(SCc2ccccc2)nnc1-c1ccccc1, the “hERG current change (%, negative = inhibition) at 1uM” value was 10.4%.
For Cn1c(=O)c2c(ncn2CC(=O)Nc2nccs2)n(C)c1=O, the “hERG current change (%, negative = inhibition) at 1uM” value was 6.48%.
With Cc1ccc(Nc2c(-c3ccc(N(C)C)cc3)nc3ncccn23)cc1 the “hERG current change (%, negative = inhibition) at 1uM” value was 16.7%.
With CC(C)OCCCNC(=O)c1ccncc1 the “hERG current change (%, negative = inhibition) at 1uM” value was -4.16%.
In the case of COc1ccccc1-c1cc(C(=O)N/N=C/c2sccc2C)c2ccccc2n1, the “hERG current change (%, negative = inhibition) at 1uM” value is reported as 12.8%.
CC1CC(CCN)(c2ccccc2)C(C)CN1C.Cl (stereo not drawn) was tested, and the “hERG current change (%, negative = inhibition) at 1uM” value was 11.4%.
COc1ccc(/C=C2/C(=O)N(Cc3ccco3)C(=O)N(C(C)C)C2=O)cc1 was tested, and the “hERG current change (%, negative = inhibition) at 1uM” value was 17.2%.
CCN(CC(=O)Nc1cc(Cl)ccc1Cl)C(=O)c1ccc(-n2cccn2)cc1 was tested, and the “hERG current change (%, negative = inhibition) at 1uM” value was -0.183%.
For O=c1cc(-c2ccccc2)nc2nc(SCc3ccccc3)[nH]n12, the “hERG current change (%, negative = inhibition) at 1uM” value was 12.4%.
